Our source for the cell count values is the supplement of paper PMC4604168 (melanoma cell lines).

The other results are listed elsewhere or left out. Repeats are few or missing, and single values can be far off.
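Also: cell number obtained by counting DAPI-stained nuclei in high-throughput microscope images with image analysis software, screen run in 1,536-well plates.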

This assay relates to WM3619. The assay can be described thus: cell count relative to DMSO control; melanoma cells; higher = more viable cells. As to conditions: library dose: low library concentration; 72 h.
`CC(=O)O[C@@]12CO[C@@H]1C[C@H](O)[C@@]1(C)C(=O)[C@H](O)C3=C(C)[C@@H](OC(=O)[C@H](O)[C@@H](NC(=O)OC(C)(C)C)c4ccccc4)C[C@@](O)([C@@H](OC(=O)c4ccccc4)[C@H]21)C3(C)C` [Docetaxel] + CN(NC(=O)CC(=O)NN(C)C(=S)c1ccccc1)C(=S)c1ccccc1 [STA4783] (first compound 0.0001 µM, partner dose 0.006 µM) had a cell count of 53.6%.

As to `CC(=O)O[C@@]12CO[C@@H]1C[C@H](O)[C@@]1(C)C(=O)[C@H](O)C3=C(C)[C@@H](OC(=O)[C@H](O)[C@@H](NC(=O)OC(C)(C)C)c4ccccc4)C[C@@](O)([C@@H](OC(=O)c4ccccc4)[C@H]21)C3(C)C` [Docetaxel] + Cc1ccc(NC(=O)c2cccc(N(C)C)c2)cc1NC(=O)c1ccc(O)cc1 [ZM336372] (first compound 0.0001 µM, partner dose 2 µM), the cell count worked out at 56.4%.

Take `Nc1ncn([C@H]2C[C@H](O)[C@@H](CO)O2)c(=O)n1` [decitabine] + CO[C@@H]1[C@H](N(C)C(=O)c2ccccc2)C[C@H]2O[C@]1(C)n1c3ccccc3c3c4c(c5c6ccccc6n2c5c31)C(=O)NC4 [Midostaurin] (first compound 0.1 µM, partner dose 0.08 µM): the cell count came to 84.6%.

Consider `Nc1ccn([C@@H]2O[C@H](CO)[C@@H](O)C2(F)F)c(=O)n1` [gemcitabine] + CCc1ccc(CCOc2ccc(CC3SC(=O)NC3=O)cc2)nc1 [pioglitazone] (first compound 0.0004 µM, partner dose 2 µM), for which the cell count is 96.1%.

For the compound `CC(=O)c1c(C)c2cnc(Nc3ccc(N4CCNCC4)cn3)nc2n(C2CCCC2)c1=O` [palbociclib] + C=CCn1c(=O)c2cnc(Nc3ccc(N4CCN(C)CC4)cc3)nc2n1-c1cccc(C(C)(C)O)n1 [MK1775] (first compound 0.04 µM, partner dose 0.02 µM), the cell count turned out to be 63.5%.

`CC(=O)c1c(C)c2cnc(Nc3ccc(N4CCNCC4)cn3)nc2n(C2CCCC2)c1=O` [palbociclib] + Oc1cc(-c2nc(-c3ccccc3)[nH]c2-c2ccncc2)ccc1Cl [L779450] (first compound 0.04 µM, partner dose 0.2 µM): the cell count worked out at 75.1%.

With `Nc1ncn([C@H]2C[C@H](O)[C@@H](CO)O2)c(=O)n1` [decitabine] + c1cc(-c2cnn3cc(-c4ccc(OCCN5CCCCC5)cc4)cnc23)ccn1 [Dorsomorphin] (first compound 0.1 µM, partner dose 0.4 µM), the cell count was 109%.

Consider `Nc1ncn([C@H]2C[C@H](O)[C@@H](CO)O2)c(=O)n1` [decitabine] + O=C(Nc1ccccc1)c1cc([N+](=O)[O-])ccc1Cl [GW9662] (first compound 0.1 µM, partner dose 2 µM), for which the cell count was determined as 111%.

Take `Nc1ncn([C@H]2C[C@H](O)[C@@H](CO)O2)c(=O)n1` [decitabine] + O=C(Nc1cccc(Cl)c1)Nc1ncc(CCNc2ncnc3ccsc23)s1 [SNS314] (first compound 0.1 µM, partner dose 0.0008 µM): the cell count amounted to 89.5%.

`CC(=O)O[C@@]12CO[C@@H]1C[C@H](O)[C@@]1(C)C(=O)[C@H](O)C3=C(C)[C@@H](OC(=O)[C@H](O)[C@@H](NC(=O)OC(C)(C)C)c4ccccc4)C[C@@](O)([C@@H](OC(=O)c4ccccc4)[C@H]21)C3(C)C` [Docetaxel] + Cn1cncc1[C@@](N)(c1ccc(Cl)cc1)c1ccc2c(c1)c(-c1cccc(Cl)c1)cc(=O)n2C [tipifarnib] (first compound 0.0001 µM, partner dose 0.01 µM) gave a cell count of 63%.

Consider `Nc1nc(F)nc2c1ncn2[C@@H]1O[C@H](CO)[C@@H](O)[C@@H]1O` [fludarabine] + CC1(C)NC(=O)N(c2ccc([N+](=O)[O-])c(C(F)(F)F)c2)C1=O [nilutamide] (first compound 0.2 µM, partner dose 1 µM), for which the cell count was 88%.

As for `Nc1ncn([C@H]2C[C@H](O)[C@@H](CO)O2)c(=O)n1` [decitabine] + O=C(CCCCCCC(=O)Nc1ccccc1)NO [vorinostat] (first compound 0.1 µM, partner dose 0.08 µM), the cell count was determined as 84.6%.

Turning to `CC(=O)c1c(C)c2cnc(Nc3ccc(N4CCNCC4)cn3)nc2n(C2CCCC2)c1=O` [palbociclib] + COc1ccc(-c2ccc3c(N4CCOCC4)nc(N4C[C@@H](C)O[C@@H](C)C4)nc3n2)cc1CO [KU0063794] (first compound 0.04 µM, partner dose 0.02 µM), the cell count was 74.4%.
